Source: PubChem BioAssay AID588855 (National Center for Advancing Translational Sciences (NCATS), 2011)
The campaign covered roughly 410,000 compounds. About 5,000 (1.2%) were called active. The inconclusive results got no clear call from the source; some entries with a clear call stand among them for comparison. Calls follow the shape of the dose curve; as a rule, active = well fitted inhibition curve with a large enough effect; inconclusive = small, poorly fitted or top-dose-only effect; inactive = no such curve, though single readings can be large or run the other way. Potencies of inconclusive entries are doubtful fits and often do not repeat.

test: qHTS for Inhibitors of TGF-b; details: HepG2 CAGA-GFP TGF-b/SMAD3 reporter, GFP fluorescence, 18 h, TGF-beta stimulated, 500 pg/mL final; series mostly up to 46.1 µM; also: nearly all actives have a fitted effect of over 65% in size
Method in brief: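 Smad-responsive CAGA-GFP expression was quantified in HEPG2 cells exposed to compounds and 500 pg/mL final TGF-beta for 18 h at 37 degrees C; unstimulated wells defined full inhibition.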
Potency is read from the fitted curve at half-maximal effect; tags tell the direction and shape of the fitted curve.

| SMILES | Potency |
| --- | --- |
| O=C(/C=C/c1cccc([N+](=O)[O-])c1)N1CCN(c2ccc(F)cc2)CC1 | inconclusive: 7.94 µM [inhibitor, partial curve] |
| Cc1cc(C(=O)COC(=O)C2=NNC(=O)CC2)c(C)n1-c1cccc(C(F)(F)F)c1 | inactive |
| Cc1nn(CCC(=O)NNC(=S)NCC(C)C)c(C)c1Br | inconclusive: 7.08 µM [inhibitor, partial curve] |
| CCN1CCCC1CNC(=O)c1ccc2c(c1)NC(=O)/C(=C\c1ccc(OC)c(OC)c1)S2 (centres undefined) | active: 12.6 µM |
| CCc1nnc(N/N=C/c2cc(C)c(C)cc2C)n1N | inconclusive: 12.6 µM [inhibitor, partial curve, poor fit] |
| Nc1c(-c2ccccc2)cnc2cc(-c3ccccc3)nn12 | inconclusive: 20 µM [inhibitor, single point] |
| Cc1ccc(C)c(S(=O)(=O)N2CCCC2CNC(=O)C(=O)NCc2ccccc2)c1 (centres undefined) | inconclusive: 35.5 µM [inhibitor, single point] |
| COc1ccccc1CNS(=O)(=O)c1ccc(-c2cc(C)no2)cc1 | inconclusive: 17.8 µM [inhibitor, partial curve, poor fit] |
| COc1ccc2oc(=N)c(C(=O)Nc3cccc(C)c3C)cc2c1 | inactive |
| CCCC1=Nc2cc(C(=O)NCCCOCC)ccc2Sc2ccccc21 | inconclusive: 1.41 µM [inhibitor, full curve, poor fit] |
| Cc1cc(=O)n2[nH]c(-c3ccc(C(C)(C)C)cc3)cc2n1 | inactive |
| N#C/C=C\Oc1ccc(Cl)cc1N | inconclusive: 0.282 µM [inhibitor, full curve, poor fit] |
| OC(CNc1nc2ccccc2s1)c1ccccc1 (centres undefined) | inconclusive: 4.47 µM [inhibitor, full curve, poor fit] |
| CCCCCCc1cc2cc(-c3cn4c(n3)sc3cc(OC)ccc34)c(=O)oc2cc1O | inactive |
| Cn1cnc(S(=O)(=O)Nc2ccc(C(F)(F)F)cc2)c1 | inconclusive: 15.8 µM [inhibitor, partial curve, poor fit] |
| CC(NC(=O)/C(C#N)=C/c1ccc([N+](=O)[O-])o1)c1ccccc1 (centres undefined) | inconclusive: 12.6 µM [inhibitor, partial curve, poor fit] |
| O=C(CCNS(=O)(=O)c1ccc(Br)cc1)NCC(c1cccs1)N1CCOCC1 (centres undefined) | inconclusive: 12.6 µM [inhibitor, single point] |
| Cn1c(NCc2ccco2)nc2c1c(=O)n(Cc1ccc(Cl)c(Cl)c1)c(=O)n2C | inconclusive: 10 µM [inhibitor, partial curve] |
| CCOc1ccc(C(C(=O)NCC2CCCO2)N(C(=O)c2snc(C(N)=O)c2N)c2cccc(F)c2)cc1 (centres undefined) | inactive |
| COCCNc1nc(C)cc(-c2cc(C(=O)NC3CCCC3)on2)n1 | inconclusive: 2.82 µM [inhibitor, partial curve, poor fit] |
| Cn1c(Cn2c(=O)sc3ccccc32)nnc1SCC(=O)NCc1ccccc1 | inconclusive: 0.1 µM [inhibitor, full curve, poor fit] |
| COc1ccc(NC(=O)C2CC(c3ccc(Cl)cc3)=NO2)cc1OC (centres undefined) | inactive |

| SMILES | Potency |
| --- | --- |
| O=C(CS(=O)(=O)c1ccccc1)Nc1ccccc1Br | inconclusive: 3.55 µM [inhibitor, single point] |
| CCOC(=O)c1c(NC(=O)c2ccccc2N(C)S(=O)(=O)c2ccccc2)sc2c1CCCC2 | inconclusive: 15.8 µM [inhibitor, single point] |
| CCN(Cc1ccccc1)S(=O)(=O)c1cc(C(=O)NCC2CCCCC2)ccc1OC | inconclusive: 35.5 µM [inhibitor, single point] |
| CC(C)CC1C(=O)N(Cc2cn(Cc3ccco3)nn2)CCS(=O)(=O)N1Cc1ccc(-c2ccc(Cl)c(Cl)c2)cc1 (centres undefined) | inconclusive: 15.8 µM [inhibitor, single point] |
| Cc1ccc(C(=O)c2sc(Nc3ccc(F)cc3)nc2N)c(C)c1 | active: 12.6 µM |
| S=C(NCc1ccncc1)Nc1ccc(Br)cc1 | inconclusive: 11.2 µM [inhibitor, partial curve, poor fit] |
| CC(C)c1ccc(NC(=O)C(c2ccc3c(c2)OCO3)N2CCCCC2)cc1 (centres undefined) | inconclusive: 35.5 µM [inhibitor, single point] |
| O=C(Cn1c(-c2cccs2)cc2cc(F)ccc21)N1CCCCC1 | inconclusive: 35.5 µM [inhibitor, single point] |
| S=c1[nH]nc(COc2ccc(Cl)cc2)n1-c1ccc(Cl)cc1 | inactive |
| Cc1cccc(N2CCN(c3ncnc4c3cnn4-c3ccc(Cl)cc3)CC2C)c1 (centres undefined) | inactive |
| COc1ccccc1NC(=O)C1=C(C)NC(=O)NC1c1cccs1 (centres undefined) | inactive |
| O=C1/C(=C\c2ccc3c(c2)OCO3)CCC/C1=C/c1ccc2c(c1)OCO2 | inconclusive: 35.5 µM [inhibitor, single point] |
| CC1C(=O)N(Cc2cn(CCC3OCCO3)nn2)CCS(=O)(=O)N1Cc1ccc(-c2ccc(F)cc2)cc1 (centres undefined) | inconclusive: 2 µM [inhibitor, partial curve] |
| COc1cc(N=c2c([N+](=O)[O-])nn(-c3ccc4c(c3)OCCO4)n2O)cc(OC)c1 | inconclusive: 35.5 µM [inhibitor, single point] |
| Cc1cccc(N2CCN(S(=O)(=O)c3cccs3)CC2)c1C | inconclusive: 35.5 µM [inhibitor, partial curve, poor fit] |
| C=C1C(=O)O[C@H]2C1CC[C@@](C)(O)C13C=CC(C)(C21)C1(C3)C(=O)O[C@@H]2C3C(C)=CCC3[C@](C)(O)C[C@H](OC(C)=O)C21 (some centres undefined) | inconclusive: 15.8 µM [inhibitor, partial curve, poor fit] |
| CCOc1ccc(-c2noc(CSc3nnc(Cc4ccccc4)n3-c3ccc(F)cc3)n2)cc1 | inconclusive: 35.5 µM [inhibitor, single point] |
| CCC(c1nnnn1C1CCCC1)N(Cc1cccs1)Cc1cc2cccc(C)c2[nH]c1=O (centres undefined) | inconclusive: 35.5 µM [inhibitor, single point] |
| CCOC(=O)c1cccc(NC(=O)CC2C(=O)N(c3ccc(F)cc3)C(=O)N2Cc2cccc(OC)c2)c1 (centres undefined) | inconclusive: 35.5 µM [inhibitor, single point] |
| COc1ccc(CNC(=O)CC2C[C@H](C(=O)N3CCCCC3)[C@@]3(C)c4[nH]c5ccccc5c4CCN3C2=O)cc1OC (some centres undefined) | inconclusive: 22.4 µM [inhibitor, single point] |
| COc1ccc2ccccc2c1CNCc1ccc(C)cc1 | inconclusive: 22.4 µM [inhibitor, single point] |
| COC(=O)C1=C(C)NC(=O)NC1c1ccc(OCC(=O)N2CCCCC2)cc1 (centres undefined) | inconclusive: 1.58 µM [inhibitor, partial curve] |

| SMILES | Potency |
| --- | --- |
| CC1=Nc2cc(C(=O)NC3CCCC3)ccc2Sc2ccc(Cl)cc21 | inconclusive: 11.2 µM [inhibitor, partial curve, poor fit] |
| CCN1CCOC(=O)C1CC(=O)Nc1cc(Cl)ccc1C (centres undefined) | inconclusive: 1.12 µM [inhibitor, full curve, poor fit] |
| Cc1[nH]c2ccccc2c1/C=N/Nc1ccccc1[N+](=O)[O-] | inconclusive: 10 µM [inhibitor, partial curve] |
| O=[N+]([O-])C(/C=C(/Cl)[N+](=O)[O-])=C(N1CCCCC1)N1CCCCC1 | inconclusive: 35.5 µM [inhibitor, single point] |
| c1ccc(-c2nnc(-c3ccccn3)nc2NC2CCCCC2)cc1 | inconclusive: 7.08 µM [inhibitor, partial curve, poor fit] |
| CCCCc1ccc(CC(=O)NO)cc1 | inactive |
| Cc1cc(/C=C(/C#N)c2nc3ccccc3[nH]2)c(C)n1-c1cc(C(=O)O)cc(C(=O)O)c1 | inactive |
| COc1ccccc1C(=O)Nc1ccc(C(=O)/C=C/c2cccs2)cc1 | inconclusive: 22.4 µM [inhibitor, single point] |
| O=C(Nc1c(C(=O)N2CCN(c3ccccc3)CC2)oc2ccccc12)c1ccccc1F | inconclusive: 11.2 µM [inhibitor, partial curve, poor fit] |
| O=C(c1cccs1)N1CCN(Cc2cn[nH]c2-c2ccc(F)cc2F)CC1 | inactive |
| Cc1cccc(N(C)C(=O)c2cc3c(=O)oc4ccc(C)cc4c3s2)c1 | inactive |
| COc1cc(/C=N/OCC(=O)NC23CC4CC(CC(C4)C2)C3)ccc1OCc1ccccc1 | active: 20 µM |
| CC(CC(=O)Nc1cccc(F)c1)S(=O)(=O)c1ccc2c(c1)NC(=O)CO2 (centres undefined) | inactive |
| Cc1ccnc(NC(c2cccnc2)c2ccc3cccnc3c2O)c1 (centres undefined) | inconclusive: 3.98 µM [inhibitor, full curve, poor fit] |
| Cc1ccc(NC(=O)C2CCCN(c3ncnc4c3nc3n4CCCCC3)C2)cc1Cl (centres undefined) | inconclusive: 35.5 µM [inhibitor, single point] |
| CCOC(=O)c1c(C)nn(Cc2cccc(Cl)c2)c1N | inconclusive: 17.8 µM [inhibitor, single point] |
| Cc1ccc(C(C(=O)NC(C)(C)C)N(Cc2cccs2)C(=O)c2ccc3c(c2)OCCO3)cc1 (centres undefined) | inconclusive: 35.5 µM [inhibitor, single point] |
| COc1ccc2nc(C)cc(Nc3ccc(C(=O)O)cc3)c2c1 | inactive |
| CCN1CNC(=S)N(Cc2ccccc2)C1 | inactive |
| N#Cc1c(NC(=O)c2ccc(Cn3cc(Br)cn3)o2)sc2c1CCCCC2 | inconclusive: 0.501 µM [inhibitor, full curve, poor fit] |
